Test results: the supplement of paper PMC3334620
Over roughly 33,000 sequences, “E-score (-0.5 to 0.5)” has its median near -0.016; the highest 2% begin near 0.32. The list shows a part of the results.

biological target: T1, Stp1 (UniProt B3LFK1); assay: PBM E-score (8-mer binding enrichment) (E-score (-0.5 to 0.5)); higher = stronger / more preferred TF binding; most listed sequences are background and not binding sites; settings: protein concentration: 200 nM; construct: GST-full length
T1 sequence: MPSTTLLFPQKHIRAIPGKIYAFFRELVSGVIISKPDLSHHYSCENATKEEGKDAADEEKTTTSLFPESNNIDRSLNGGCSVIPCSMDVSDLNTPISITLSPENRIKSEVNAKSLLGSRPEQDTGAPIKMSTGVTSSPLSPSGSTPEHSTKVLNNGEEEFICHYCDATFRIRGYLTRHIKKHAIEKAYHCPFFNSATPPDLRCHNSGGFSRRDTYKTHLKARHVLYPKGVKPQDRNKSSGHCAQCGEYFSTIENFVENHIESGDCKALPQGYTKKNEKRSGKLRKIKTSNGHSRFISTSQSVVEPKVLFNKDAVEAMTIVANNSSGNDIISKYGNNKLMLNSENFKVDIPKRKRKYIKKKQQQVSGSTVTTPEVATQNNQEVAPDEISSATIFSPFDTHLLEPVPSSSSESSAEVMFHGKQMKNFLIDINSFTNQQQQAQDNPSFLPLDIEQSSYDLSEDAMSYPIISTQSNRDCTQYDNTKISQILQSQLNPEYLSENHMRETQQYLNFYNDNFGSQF
Method in brief: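 Each ungapped eight-base word and its reverse complement, pooled, received an E-score from the Universal PBM Analysis Suite. Underlying scans, normalised with masliner, recorded fluorescent anti-GST bound to GST-tagged yeast transcription factors. These were applied at about 100-200 nM to universal all-10-mer Agilent arrays double-stranded by primer extension.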

Sequence	PBM E-score
TGATCGCA	-0.15
AAGAAAGA	-0.0298
AATGCCCT	0.212
AGCTCTCG	-0.245
ATCTGACA	-0.171
CCATGTAG	-0.0141
CGTAGTAC	0.0489
AGGGGAAG	-0.273
CCTGTGTC	-0.215
GATCGGGA	-0.275
CTAAATAG	0.11
AGTCAATG	-0.168
ATATACAC	-0.00026
AACAACGG	0.182
AAAGGGGT	-0.245
CCTACTTC	-0.0244
CTGCATCA	0.0593
CCGCTCAA	0.135
AGACACTG	-0.0839
GCCTCCGA	-0.0504
ATCAGCGC	0.102
CGACGTGA	-0.0134
ATCTCAAG	-0.0821
AGGCTTGA	-0.161
ATAAGGCG	0.365

Sequence	PBM E-score
CGGTCAAA	0.149
GGAGGAAC	-0.222
AGCTCAAA	0.0552
CAAGACTC	0.0544
CATCGCGA	0.0657
CCGGTCAA	-0.0349
CGGCACCC	0.338
CCTCAGTA	-0.244
AATCATTA	0.0799
CCAGTTCA	0.0872
GAGGATAC	-0.0295
ACCAGCCG	-0.0724
ACTTGAAT	0.0207
CGACCTCC	-0.155
CGTAGTCA	-0.185
TACAGAAA	0.212
CAGGTGGC	0.00875
ATAGTTGC	-0.0822
ATGGCGAA	0.139
ATGCAGAG	-0.18
ACCCCCTC	-0.468
CCATGGTC	-0.0484
GACAACTC	0.0102
AAAAACAA	0.109
CGTCCTCA	0.0374

Sequence	PBM E-score
GGCTGAGA	-0.0639
AGCTGGGG	-0.258
CAGCCCCC	-0.326
CTGGGAGA	-0.226
ACGAATTC	0.0899
CGCACCAA	0.213
GGGATCGA	-0.0166
ACCGTACC	-0.0289
GTACCGAA	-0.0115
CACGGCTG	0.363
GTCCATCA	-0.198
AGGTCCCG	-0.146
GTAAGGCA	0.306
ATATGGAG	0.258
GATCCCGA	-0.101
CCCCCGGC	-0.376
ATCCGTAC	0.28
ACATGCAA	0.0556
CCTCGCGA	0.152
AGGCGGTC	-0.102
ACAAGTGG	0.00648
CGATGAAC	-0.157
GGCCCACA	-0.0997
GGACCACC	-0.29
CCTGTTTA	0.0663

Sequence	PBM E-score
CACGTGGC	0.213
CGAGTAAG	0.122
GACAATCA	-0.0163
CTTAAACC	-0.224
GAGGAGGC	0.00167
AACACGGT	-0.0276
CTGAAACA	0.0582
ATGGTAGA	0.0876
AGTATTTA	0.112
AGCTAGCT	-0.121
GCGATGAA	0.0727
CTTCAAAC	0.0173
AGCTAGTA	-0.079
AGGATACG	0.148
AGAAATAC	0.0854
CTAACGGA	0.0439
GGAACATA	-0.0615
AACAAATT	0.232
CTTTCTTC	-0.0626
CGATGTAG	-0.0761
GAATGAGA	-0.0008
AGCATGGG	-0.254
GAAAAGTA	0.151
AAGTTTCC	0.151
TTGCGAAA	0.233

Sequence	PBM E-score
GGAGTGCA	-0.0113
AAGCAAGC	-0.0899
GTAAATAC	0.0373
AGTGAGCG	-0.0787
AATGTGCA	0.0581
GCCTGCAA	-0.134
AGTGTAGC	0.0315
CGCTACTC	-0.109
ACTTCGAT	0.125
AAGGGGTG	-0.18
CTAGAGGA	-0.197
GTAGTCAC	-0.127
AGAGCTAG	-0.129
ATACGATC	0.0718
CCGTTCCC	0.181
GAGCAGCA	0.00186
ACAGCAAT	0.178
AAAGAATC	0.0141
GATCTGCC	-0.143
ACCGCCGT	0.449
GCGTAGCA	-0.0278
TAACCCTA	-0.181
GACCGGGC	-0.267
CGAGACTC	-0.304
GAGGTCGC	-0.179

Sequence	PBM E-score
CTAAGTAG	0.0172
AGAATACC	0.08
AGTACCGG	-0.231
AGTGGCCA	-0.163
CATGCATG	0.0957
AACTCATT	-0.242
TAGTTTAA	0.0359
ATTATGTC	0.0735
GGGCAGGA	-0.17
AAGCTTCC	-0.231
TGTAGCAA	-0.0432
GCTCACCA	-0.249
CTGTAGCC	0.041
GCCCATAA	-0.0177
CGCTTACA	0.0771
GAATCGAC	-0.0272
CTAACCTA	-0.0909
GAGACTGA	-0.0955
AATTACCA	0.146
AAAAGTGT	0.0382
GGGACGTA	-0.164
CAACATGG	0.0104
ATGGCACG	0.354
ACCCTGCA	-0.0103
ATAGATTC	0.042

Sequence	PBM E-score
AACGATTA	-0.0188
ATCGGCGA	0.0557
ATACGTAT	0.186
CTTGGGCA	-0.0164
GCTCCCCA	-0.407
AGACGAGA	-0.112
ATAGATCC	0.0305
ACTGACAT	-0.0444
GGCTAAAA	0.088
CCTCTAAC	-0.0799
ATTTTACG	0.299
CGAATGAG	0.179
AACTTTAT	0.0488
CAGTAATC	0.0108
AGACAAAG	0.00552
ACGATCCA	-0.0345
GCCATGTA	-0.0112
TAATAACA	0.145
GATAGTCC	-0.271
AACGATAC	-0.121
GCCGAAAC	-0.0114
GCATCGCA	-0.149
